Measurements as given in paper PMC4336329 (PLoS ONE, 2015).
About 2,200 (0.71%) of roughly 310,000 compounds showed an effect of 50% or more. The effect is printed as a negative number. The list shows a part of the results.

The molecules below were run against human ether-à-go-go-related gene (hERG) potassium channel (human, UniProt Q12809) (assay: primary screen, population patch clamp on CHO cells stably expressing hERG).
human ether-à-go-go-related gene (hERG) potassium channel, sequence (Q12809 whole entry, looked up): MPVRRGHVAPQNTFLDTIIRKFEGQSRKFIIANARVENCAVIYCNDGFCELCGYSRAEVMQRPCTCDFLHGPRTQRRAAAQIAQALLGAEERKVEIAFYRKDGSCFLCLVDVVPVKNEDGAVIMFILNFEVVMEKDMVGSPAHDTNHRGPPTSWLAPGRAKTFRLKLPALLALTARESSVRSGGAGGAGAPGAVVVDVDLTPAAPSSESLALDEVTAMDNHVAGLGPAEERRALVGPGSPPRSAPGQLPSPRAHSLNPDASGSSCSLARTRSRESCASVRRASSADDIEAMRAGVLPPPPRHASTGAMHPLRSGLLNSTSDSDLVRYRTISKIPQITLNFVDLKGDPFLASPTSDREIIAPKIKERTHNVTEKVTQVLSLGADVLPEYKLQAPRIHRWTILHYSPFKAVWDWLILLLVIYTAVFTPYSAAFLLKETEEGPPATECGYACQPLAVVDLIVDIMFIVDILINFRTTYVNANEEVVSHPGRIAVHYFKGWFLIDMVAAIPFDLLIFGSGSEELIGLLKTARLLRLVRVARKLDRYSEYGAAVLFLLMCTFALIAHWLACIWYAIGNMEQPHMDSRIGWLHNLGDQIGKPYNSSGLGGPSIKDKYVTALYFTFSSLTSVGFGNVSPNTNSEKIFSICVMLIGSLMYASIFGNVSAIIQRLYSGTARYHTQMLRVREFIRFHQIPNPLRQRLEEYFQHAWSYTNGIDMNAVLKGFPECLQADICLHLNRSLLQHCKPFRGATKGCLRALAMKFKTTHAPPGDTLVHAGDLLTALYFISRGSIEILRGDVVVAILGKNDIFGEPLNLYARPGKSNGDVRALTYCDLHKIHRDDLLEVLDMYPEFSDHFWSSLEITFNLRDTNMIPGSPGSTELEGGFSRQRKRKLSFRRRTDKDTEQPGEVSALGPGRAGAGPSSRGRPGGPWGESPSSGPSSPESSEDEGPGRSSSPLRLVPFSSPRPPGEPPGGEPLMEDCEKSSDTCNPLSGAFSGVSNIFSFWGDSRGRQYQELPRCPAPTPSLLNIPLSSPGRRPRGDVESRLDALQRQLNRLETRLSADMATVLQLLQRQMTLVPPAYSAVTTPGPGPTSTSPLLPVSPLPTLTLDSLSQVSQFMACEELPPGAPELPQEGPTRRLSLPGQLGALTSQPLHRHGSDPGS
In the case of `COc1cc(/C=C2\C(=N)N3N=C(S(C)(=O)=O)SC3=NC2=O)cc(OC)c1OCCOc1cccc(C)c1`, the “hERG current change (%, negative = inhibition) at 1uM” value is reported as 10.4%. For `Cc1cc(C)cc(OCCn2ccnc2)c1`, the “hERG current change (%, negative = inhibition) at 1uM” value was 13.1%. With `CC(C)=C1SC(N2CCN(c3ccc(Cl)cc3)CC2)=NC1=O` the “hERG current change (%, negative = inhibition) at 1uM” value was 14.5%. With `S=c1nn[nH]n1C12CC3CC(CC(C3)C1)C2` the “hERG current change (%, negative = inhibition) at 1uM” value was 6.97%. With `CC1(C)Cc2ccccc2C(/C(C#N)=N/O)=N1` the “hERG current change (%, negative = inhibition) at 1uM” value was 6.29%. With `CCNC(=O)CC1C(=O)N(c2ccccc2)C(=O)N1CCC(C)C` (stereo not drawn) the “hERG current change (%, negative = inhibition) at 1uM” value was 7.67%. With `COc1ccc(NC(=O)COc2ncnc3ccccc23)cc1S(=O)(=O)N1CCOCC1` the “hERG current change (%, negative = inhibition) at 1uM” value was 7.05%. For `CC12CCC(=O)N1c1ccccc1C(=O)N2c1ccccc1` (stereo not drawn), the “hERG current change (%, negative = inhibition) at 1uM” value was 11.1%. For `Cc1cc(C)n(-c2ccc(C(=O)Nc3ccccc3N3CCOCC3)cc2)n1`, the “hERG current change (%, negative = inhibition) at 1uM” value was 4.71%. For `COc1ccc(/C=N/NC(=O)c2cc(Br)ccc2O)cc1Cn1cc(Cl)cn1`, the “hERG current change (%, negative = inhibition) at 1uM” value was -4.94%. `Cc1cc(C)cc(NC(=O)CCn2cnc3cc(C)c(C)cc32)c1` was tested, and the “hERG current change (%, negative = inhibition) at 1uM” value was 8.3%. For `O=C(COc1ccc(Cl)cc1)Nc1nc(-c2cccs2)cs1`, the “hERG current change (%, negative = inhibition) at 1uM” value was 14.5%. In the case of `CCOC(=O)N1CCN(Cc2nc(C3CC3)no2)CC1`, the “hERG current change (%, negative = inhibition) at 1uM” value is reported as 11.8%. `Cc1c(C)c2ccc(OC(C)C(=O)N[C@@H](Cc3c[nH]c4ccccc34)C(=O)O)c(C)c2oc1=O` (stereo partly drawn) was tested, and the “hERG current change (%, negative = inhibition) at 1uM” value was 8.32%. `CC(=O)O/N=C(/C)c1ncc(C(F)(F)F)cc1N1CCOCC1` was tested, and the “hERG current change (%, negative = inhibition) at 1uM” value was 18%. With `O=c1[nH]c2ccc(NCc3ccc(OCc4ccccc4Cl)cc3)cc2[nH]1` the “hERG current change (%, negative = inhibition) at 1uM” value was 10.8%. For `CCc1ccc(NC(=O)Cc2cn(C)c3ccccc23)cc1`, the “hERG current change (%, negative = inhibition) at 1uM” value was 14.5%. For `Cc1cc(N)n2nc(-c3ccccc3)cc2n1`, the “hERG current change (%, negative = inhibition) at 1uM” value was 0.508%. In the case of `N/C(CN1CCCC1=O)=N\OC(=O)c1ccc(Cl)c(Cl)c1`, the “hERG current change (%, negative = inhibition) at 1uM” value is reported as -0.813%. With `CCCN1C(=O)c2ccccc2NC1c1ccc(C)cc1` (stereo not drawn) the “hERG current change (%, negative = inhibition) at 1uM” value was 8.89%. In the case of `COc1cccc(N2CCN(C(=O)C3CCN(S(=O)(=O)c4ccc5c(c4)CC(C)N5C(C)=O)CC3)CC2)c1` (stereo not drawn), the “hERG current change (%, negative = inhibition) at 1uM” value is reported as -5.86%. `COc1cc2[nH]c(C(=O)N3CCc4ccccc43)cc2c(OC)c1OC` was tested, and the “hERG current change (%, negative = inhibition) at 1uM” value was 6.43%. With `O=C(c1cccc(S(=O)(=O)NCc2ccccc2)c1)N1CCCCC1` the “hERG current change (%, negative = inhibition) at 1uM” value was 9.32%. In the case of `CCN(CC(=O)Nc1ccc(NC(C)=O)cc1)C(=O)c1ccc2c(c1)S(=O)(=O)N=C1CCCCCN12`, the “hERG current change (%, negative = inhibition) at 1uM” value is reported as 12.6%.
